Measurements published in PubChem BioAssay AID1671194 (National Center for Advancing Translational Sciences (NCATS), 2021).
Where “and” joins values, the source holds several entries; their conditions need not be identical. Equal values may be shown once. In all, about 140,000 compounds went through this assay and about 240 (0.17%) were called active. Inconclusive results, whose numbers are uncertain, are shown with a selection of clear calls. The call rests on the fitted dose curve; in most records, active means well fitted inhibition curve with a large enough effect; inconclusive means small, poorly fitted or top-dose-only effect; inactive means no such curve, though single readings can be large or run the other way. Where the call is inconclusive, the potency comes from a doubtful curve fit.

assay: Primary qHTS assay for inhibitors of alpha-synuclein gene (SNCA) expression; details: HEK-293 SNCA-luciferase knock-in, luminescence, 24 h; activity change, negative = inhibition: at 57.2 µM (top of the series) unless noted; further: nearly all actives have a fitted effect of over 45% in size;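 on activity change, negative = inhibition: plate controls were DMSO cells for no effect and cell-free wells for full effect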
Potency means the concentration at half of the fitted maximal effect; tags describe the fitted curve by direction and shape.

**Q.** With `CN(CC(=O)N1CCC(CCOc2ccc(F)cc2)C1)S(=O)(=O)c1ccc2c(c1)oc(=O)n2C` (stereo unspecified) as the compound, how does the Potency read?
**A.** The Potency was inconclusive: 39.8 µM [inhibitor, single point].

**Q.** With `O=C(NC1CCCCC1)c1ccc2nnc(-c3ccoc3)n2c1` as the compound, how does the “activity change, negative = inhibition” value read?
**A.** The value was inactive: 14.6% [at 87.6 µM].

**Q.** Which “activity change, negative = inhibition” value does the source give for `O=C(NC1CCCN(Cc2ccc(-c3cncnc3)cc2)C1)c1ccccc1Cl` (stereo unspecified) here?
**A.** The value was inactive: -1.23%.

**Q.** Which Potency does the source give for `CC1=C[C@@H](CNC(=O)c2ccc(F)cc2)[C@H](C(C)C)C[C@H]1Cc1nnc(-c2ccncc2)o1` here?
**A.** Its Potency is inconclusive: 15.8 µM [inhibitor, single point].

**Q.** For `CCOC(=O)CNC(=O)Nc1cc(C(=O)NCc2cccc(F)c2)ccc1N1CCCC1`, which Potency is on record?
**A.** The Potency was inconclusive: 39.8 µM [inhibitor, single point].

**Q.** Which Potency does the source give for `COCc1nncn1C1CCN(C(=O)c2cccc(C(F)(F)F)c2)CC1` here?
**A.** The Potency was inconclusive: 2.82 µM [inhibitor, partial curve, poor fit].

**Q.** For `Cc1ccc(CN2CCN(C(=O)CCC3CCN(C(=O)c4ccccc4)CC3)CC2)cc1`, which Potency is on record?
**A.** The Potency was inconclusive: 44.7 µM [inhibitor, partial curve, poor fit].

**Q.** Which Potency does the source give for `COc1ccccc1CNC(=O)C(=O)NCC(c1cccs1)S(=O)(=O)c1ccc(F)cc1` (stereo unspecified) here?
**A.** Its Potency is inconclusive: 0.178 µM [inhibitor, partial curve, poor fit].

**Q.** Which Potency does the source give for `CCCCn1c(=O)n(-c2ccc(Br)cc2F)c(=O)c2c3c(sc21)CN(C(C)=O)CC3` here?
**A.** The Potency was inconclusive: 0.398 µM [inhibitor, full curve].

**Q.** For `COc1cc(C(=O)Nc2ccc3nn(-c4ccc(F)cc4)nc3c2)cc(OC)c1OC`, which “activity change, negative = inhibition” value is on record?
**A.** The value was inactive: -2.11%.

**Q.** Which “activity change, negative = inhibition” value does the source give for `O=C(NCCc1c[nH]c2ccccc12)[C@@H]1C[C@H]2C(=O)NCCCCCCN(C(=O)C3CC3)[C@H]2C1` here?
**A.** The value was inactive: 12.7%.

**Q.** With `COc1ccccc1-n1cc(C(=O)N2CCc3c(Cl)cccc3C2)cn1` as the compound, how does the Potency read?
**A.** Its Potency is inconclusive: 28.2 µM [inhibitor, single point].

**Q.** With `O=C(Nc1cc(Cl)cc(Cl)c1)c1ccc(F)c(S(=O)(=O)N2CCc3ccccc32)c1` as the compound, how does the Potency read?
**A.** Its Potency is inconclusive: 39.8 µM [inhibitor, single point].

**Q.** With `O=C(Nc1ccc(F)cc1)c1oc2ccccc2c1NC(=O)C12CC3CC(CC(C3)C1)C2` as the compound, how does the Potency read?
**A.** Its Potency is inconclusive: 2 µM [inhibitor, full curve, poor fit].

**Q.** With `COC[C@H]1CCCN1Cc1nc(C2(O)CCN(C3COC3)CC2)cs1` as the compound, how does the Potency read?
**A.** Its Potency is inconclusive: 5.62 µM [inhibitor, full curve].

**Q.** With `CCOC(=O)c1c(C)oc2ccc(N(C(=O)Oc3ccccc3)S(=O)(=O)c3ccc(CC)cc3)cc12` as the compound, how does the Potency read?
**A.** The Potency was inconclusive: 14.1 µM [inhibitor, single point].

**Q.** For `O=C(N[C@H]1[C@H](O)[C@H](O)C[C@@H]1c1cccnc1)c1ccccc1`, which Potency is on record?
**A.** The Potency was inconclusive: 7.08 µM [inhibitor, single point].

**Q.** For `COc1ccccc1-c1ccc(C(=O)N2CCC(NC(=O)Cc3cccc(Cl)c3)CC2)cc1`, which Potency is on record?
**A.** Its Potency is inconclusive: 17.8 µM [inhibitor, single point] and inconclusive: 7.08 µM [inhibitor, partial curve, poor fit].

**Q.** For `CCN(C)C(=O)C(C)N1CCc2onc(C(c3ccccc3)c3ccccc3)c2C1` (stereo unspecified), which “activity change, negative = inhibition” value is on record?
**A.** Its value is inactive: -10.1%.

**Q.** Which Potency does the source give for `CC(C)(C)c1ccc(C(=O)NCC(c2cccs2)S(=O)(=O)c2ccccc2)cc1` (stereo unspecified) here?
**A.** Its Potency is inconclusive: 0.199 µM [inhibitor, single point].

**Q.** Which Potency does the source give for `O=C1NCc2ccccc2CC12CCCN(CCCc1ccccc1)C2` (stereo unspecified) here?
**A.** The Potency was inconclusive: 44.7 µM [inhibitor, single point].

**Q.** Which “activity change, negative = inhibition” value does the source give for `CCN1c2cc(C(=O)Nc3ccc(F)cc3)ccc2C(=O)N2CCCCCC21` (stereo unspecified) here?
**A.** The value was inactive: 30.9%.

**Q.** With `O=C(O)Cn1nc(C2CCOCC2)nc1C1CNC(=O)C1` (stereo unspecified) as the compound, how does the “activity change, negative = inhibition” value read?
**A.** The value was inactive: -17.7%.

**Q.** Which “activity change, negative = inhibition” value does the source give for `Cc1ccccc1-n1nc(C)c(CCC(=O)NCC2CCCO2)c1Oc1ccccc1F` (stereo unspecified) here?
**A.** The value was inactive: 5.84%.

**Q.** For `Cc1cccc(CN2CCC(CNC(=O)c3c(C)oc4ncnc(N5CCCCC5)c34)CC2)c1`, which Potency is on record?
**A.** The Potency was inconclusive: 2.82 µM [inhibitor, partial curve, poor fit].

**Q.** For `CCn1c2c(c(=O)n1-c1ccccc1)CCN(Cc1cncc(OC)c1)C2`, which “activity change, negative = inhibition” value is on record?
**A.** Its value is inactive: 12.7% [at 87.6 µM].

**Q.** Which “activity change, negative = inhibition” value does the source give for `CN(C(=O)c1c(F)cccc1Cl)C1CCc2nn(C)c(=O)n2CC1` (stereo unspecified) here?
**A.** The value was inactive: -4.82%.

**Q.** Which “activity change, negative = inhibition” value does the source give for `CC1=C[C@@H](CN2CCC(CO)CC2)[C@H](C(C)C)C[C@H]1Cc1nnc(-c2ccc([N+](=O)[O-])cc2)o1` here?
**A.** The value was inactive: 14.4%.

**Q.** For `CCN1c2cc(C(=O)Nc3ccc(Br)c(C)c3)ccc2C(=O)N2CCCCC21` (stereo unspecified), which Potency is on record?
**A.** The Potency was inconclusive: 39.8 µM [inhibitor, single point].

**Q.** With `COc1ccc(CN2CCC3(C2)C(=O)N(c2ccccc2)c2ccccc23)cc1` (stereo unspecified) as the compound, how does the Potency read?
**A.** The Potency was inconclusive: 39.8 µM [inhibitor, single point].

**Q.** Which “activity change, negative = inhibition” value does the source give for `NCc1cccc(-c2ccc(F)cc2F)c1` here?
**A.** The value was inactive: 29.6% [at 87.6 µM].

**Q.** Which Potency does the source give for `N#Cc1ccccc1CN1CCC([C@@H]2CNC[C@H]2CO)CC1` here?
**A.** The Potency was inconclusive: 28.2 µM [inhibitor, partial curve, poor fit].

**Q.** For `COc1ccc(NC(=O)c2ccc3c(c2)N(C(=O)c2ccc(OC)cc2)CC3)cc1`, which “activity change, negative = inhibition” value is on record?
**A.** Its value is inactive: 28%.

**Q.** For `C[C@@]12C(=O)OC(=O)[C@]1(C)C1CCC2O1`, which Potency is on record?
**A.** The Potency was inconclusive: 11.2 µM [inhibitor, partial curve, poor fit].

**Q.** With `O=c1[nH]c(C2CCN(CC3CCCC3)CC2)nc2ccc(F)cc12` as the compound, how does the Potency read?
**A.** The Potency was “inactive and inconclusive: 3.55 µM [inhibitor, single point]”.

**Q.** Which Potency does the source give for `CC(C)(C)c1ccc(Cn2c(Cc3ccccc3)nc3ccccc32)cc1` here?
**A.** The Potency was inconclusive: 15.8 µM [inhibitor, partial curve, poor fit].

**Q.** For `CCC(=O)N1CCCC(c2nc(C(C)C)no2)CCNC(=O)CC1` (stereo unspecified), which Potency is on record?
**A.** The Potency was inconclusive: 25.1 µM [inhibitor, single point].

**Q.** Which Potency does the source give for `COc1ccc(OC)c(NC(=O)c2cc3c(n(-c4ccc(Cl)cc4)c2=O)CC(C)(C)CC3=O)c1` here?
**A.** Its Potency is inconclusive: 35.5 µM [inhibitor, single point].

**Q.** Which “activity change, negative = inhibition” value does the source give for `COc1cccc(C(=O)NC(C(=O)N2CCCCC2)C2CCN(C(=O)c3cccc(F)c3)CC2)c1` (stereo unspecified) here?
**A.** The value was inactive: 9.05%.

**Q.** With `Cc1nnc(-c2cc(-c3cnn(C)c3)ccn2)n1C1CCCCC1` as the compound, how does the “activity change, negative = inhibition” value read?
**A.** Its value is inactive: -1.14% [at 87.6 µM].

**Q.** Which “activity change, negative = inhibition” value does the source give for `COc1ccc(CN2CCN(c3ccccc3)CC2C)c(OC)c1OC` (stereo unspecified) here?
**A.** Its value is inactive: -13.8%.
